Data published in PubChem BioAssay AID485367 (National Center for Advancing Translational Sciences (NCATS), 2010).
Screen size: about 330,000 compounds; about 560 (0.17%) were called active. The inconclusive results got no clear call from the source; some entries with a clear call stand among them for comparison. Calls come from the whole dose curve; as a rule, active = well fitted inhibition curve with a large enough effect; inconclusive = small, poorly fitted or top-dose-only effect, or effect the other way; inactive = flat fitted curve, though single readings scatter. No potency is given beside an inconclusive call; the fits are too rough.

Target: ATP-dependent 6-phosphofructokinase (Trypanosoma brucei brucei) (UniProt O15648)
UniProt O15648, sequence (O15648 whole entry, looked up): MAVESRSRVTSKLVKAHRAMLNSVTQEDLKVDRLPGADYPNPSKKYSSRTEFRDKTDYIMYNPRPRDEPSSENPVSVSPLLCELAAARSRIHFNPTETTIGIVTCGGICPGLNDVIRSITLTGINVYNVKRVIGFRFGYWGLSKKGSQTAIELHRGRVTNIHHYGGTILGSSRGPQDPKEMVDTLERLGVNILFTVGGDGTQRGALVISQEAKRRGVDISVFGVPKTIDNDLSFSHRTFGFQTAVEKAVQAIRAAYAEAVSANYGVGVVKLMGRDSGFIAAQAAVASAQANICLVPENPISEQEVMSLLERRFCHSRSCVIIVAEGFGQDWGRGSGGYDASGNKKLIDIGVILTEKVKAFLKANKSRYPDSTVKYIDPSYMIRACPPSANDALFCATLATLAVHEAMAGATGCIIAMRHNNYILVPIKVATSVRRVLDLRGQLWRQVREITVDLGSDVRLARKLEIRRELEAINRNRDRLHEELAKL
Assay: qHTS Assay to Find Inhibitors of T. brucei phosphofructokinase; note: nearly all actives have a fitted effect of over 60% in size;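 for activity, negative = inhibition: 0% = uninhibited 1x PFK enzyme wells and -100% = no-enzyme wells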
Conditions: T. brucei PFK, ADP-Glo luminescence; activity, negative = inhibition: at 57.5 µM (top of the series)
Procedure, shortened: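 PFK 1.25 nM, F6P 0.5 mM, ATP 0.1 mM, 0.1 M TEA pH 8.0, 5 mM MgCl2, 0.01% Tween20, 0.1% BSA; 45 min RT. ADP-Glo readout. qHTS titration up to 57 uM; curves fitted, compounds curve-classed.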
Potency is the fitted concentration of half-maximal effect; tags give direction and shape of the fitted curve.

Row | Structure (SMILES) | Potency | activity, negative = inhibition
1 | O=C(Nc1ccc(F)c([N+](=O)[O-])c1)c1cccs1 | inconclusive [falling, single point] | –
2 | COc1ccc(C[C@H]2CN3C(=NC[C@@H]3Cc3ccccc3)N2C[C@H](C)NC(=O)CCC2CCCCC2)cc1 | – | inactive: 0.129%
3 | Cc1ccccc1NC(=O)CSc1nnc(-c2ccco2)c(-c2ccco2)n1 | inconclusive [falling, single point] | –
4 | Nc1ccc(-c2c3ccc(=O)cc-3oc3cc(O)ccc23)c(C(=O)O)c1 | inconclusive [activator, full curve, poor fit] | –
5 | O=C(N/N=C/c1ccc(O)cc1O)c1ccc(CN2C(=O)c3cccc4cccc2c34)cc1 | – | inactive: 6.11%
6 | Cc1ccnc(N=O)c1 | – | inactive: 7.43%
7 | CC(C)NCc1cccc([N+](=O)[O-])c1 | inconclusive [falling, single point] | –
8 | O=C(NCCCCl)C1CC(=O)N(CCc2ccc(F)cc2)C1 (configuration not stated) | – | inactive: -3.12%
9 | Fc1ccc(NC(=S)Nc2ccccc2OC(F)F)cc1Cl | inconclusive [falling, partial curve] | –
10 | Fc1ccc(C2=CC(c3ccc(Br)o3)n3ncnc3N2)cc1 (configuration not stated) | – | inactive: -1.06%
11 | CCN(CC)CCN(Cc1cc2cc(C)ccc2[nH]c1=O)C(=O)Nc1ccccc1OC | – | inactive: -4.32%
12 | C=CCn1c(SCC(=O)c2ccc(O)c(O)c2)nnc1-c1ccc(OC)cc1 | – | inactive: -2.79%
13 | Fc1ccc(N=c2ssnc2Cl)c(F)c1 | inconclusive [falling, single point] | –
14 | COc1ccc(NC(=O)c2ccc(NC(=O)c3nc4nccc(C)n4n3)cc2)cc1 | – | inactive: -0.136%
15 | C[C@@H]1CCC(=O)N(C[C@@H](C)CSc2ccc(Br)cc2)CC1 | inconclusive [falling, single point] | –
16 | O=C(COc1ccc(F)c(Cl)c1)c1ccc[nH]1 | inconclusive [falling, partial curve] | –
17 | Cc1ccc(C(=O)N(c2ccccc2)C2CC(C)N(C(=O)c3ccco3)c3ccccc32)cc1 (configuration not stated) | – | inactive: 2.97%
18 | Nn1c(=O)c2ccccc2n2c(SCc3ccc(C(F)(F)F)cc3)nnc12 | inconclusive [falling, single point] | –
19 | Cc1ccc(-c2nc(CN(C)C3CCOC3)c(C)o2)s1 (configuration not stated) | inconclusive [activator, single point] | –
20 | COc1ccccc1OCCNC(=O)c1ccccc1C | – | inactive: -2.6%
21 | Cc1c(C#N)c(O)[nH]c(=O)c1N=Nc1ccc(Br)cc1C(=O)O | inconclusive [activator, partial curve] | –
22 | CC(=O)c1ccc(S(=O)(=O)Nc2cccc(-n3cnnn3)c2)cc1 | – | inactive: -17.2%
23 | CN1CCc2cccc3c2[C@@H]1Cc1ccc(O)c(O)c1-3 | active: 4.26 µM | –
24 | C/C(=N\Nc1c(Cl)c(Cl)nc(C(=O)O)c1Cl)c1ccc(O)cc1 | inconclusive [falling, single point] | –
25 | O=c1cc2oc3cc(O)c(O)cc3c(-c3ccccc3O)c-2cc1O | inconclusive [falling, single point] | –
26 | Cc1nn(-c2ccccc2)c(Cl)c1/C=N/NC(=O)OC(C)(C)C | – | inactive: -0.441%

Row | Structure (SMILES) | Potency | activity, negative = inhibition
27 | O=C(CN1c2ccccc2Sc2ccccc21)N/N=C/c1ccc([N+](=O)[O-])cc1 | – | inactive: -0.0617%
28 | O=c1c([N+](=O)[O-])cccn1Cc1cccc(Br)c1 | inconclusive [falling, single point] | –
29 | O=c1/c(=C/c2ccco2)sc2n1CN(c1cccc(Br)c1)CN=2 | inconclusive [falling, single point] | –
30 | CCOc1cc(C2CC(=O)N3CN(C4CCCCC4)CSC3=C2C#N)ccc1O (configuration not stated) | – | inactive: -0.555%
31 | Cc1ccc(CNC(=O)[C@H](C)[C@H]2C[C@]2(C)[C@H](NC(=O)OCc2ccccc2)c2ccccc2)o1 | – | inactive: -8.08%
32 | CC(=O)NCCNC(=O)C1CCCCN1S(=O)(=O)c1ccccc1 (configuration not stated) | inconclusive [falling, single point] | –
33 | COc1ccccc1/C=C/C(=O)NCC(=O)N/N=C/c1ccccc1[N+](=O)[O-] | inconclusive [activator, partial curve] | –
34 | O=C(CSc1nnc(CNc2ccc(F)cc2)o1)OC1CCCCC1 | inconclusive [falling, single point] | –
35 | COc1ccc(CC(=O)Nc2nc(-c3ccc(F)c(F)c3)cs2)cc1OC | inconclusive [falling, single point] | –
36 | COc1cc2c(ccc3cc(OC)c(OC)c(O)c32)cc1O | inconclusive [falling, single point] | –
37 | O=C(CCN1C(=O)/C(=C/c2ccco2)SC1=S)Nc1ccc(C(=O)O)c(O)c1 | inconclusive [activator, partial curve] | –
38 | Cc1ccc(N2C(=O)C3CCC(c4ccccc4)CC3C2=O)cc1 (configuration not stated) | inconclusive [falling, single point] | –
39 | COc1ccc([C@H]2Cc3cccc(O)c3C(=O)O2)cc1O | – | inactive: 0.0239%
40 | O=C(c1ccc(Cl)cc1)N1CCC(O)(CSc2ccc(Cl)cc2)CC1 | – | inactive: -6.95%
41 | COc1ccc(OC)c(NC(=O)c2cc3ccccc3cc2OC)c1 | inconclusive [activator, single point] | –
42 | NC(=S)NNc1ccc(Cl)c(Cl)c1 | active: 19 µM | –
43 | Cc1ccccc1/C=N/N1C(=O)CSC1=S | – | inactive: 5.6%
44 | OCc1c[nH]c(=S)n1CCOc1cccc(C(F)(F)F)c1 | inconclusive [falling, partial curve] | –
45 | CCOc1ccc(/C=N/n2cc(-c3ccccc3)[nH]c2=S)cc1 | inconclusive [falling, partial curve] | –
46 | CC/C(=N\NC(=O)CNC(=O)/C=C/c1ccc(OC)cc1)c1ccccc1 | – | inactive: 1.59%
47 | CCC(C(=O)OCC(=O)c1ccc(OC)cc1OC)c1ccccc1 (configuration not stated) | inconclusive [falling, partial curve] | –
48 | CN(C)C=Nc1ccc(Cl)c(Cl)c1 | active: 26.9 µM | –
49 | Cc1ccc2nc(CSc3nnc(-c4ccco4)o3)cc(=O)n2c1 | inconclusive [falling, single point] | –
50 | O=C(Nc1ccc(F)c([N+](=O)[O-])c1)C(=O)c1c(O)[nH]c2ccccc12 | inconclusive [falling, partial curve] | –
51 | O=C(N/N=C/c1ccoc1)c1ccccc1 | inconclusive [falling, single point] | –
52 | COc1ccc(S(=O)(=O)N(C(=O)c2ccco2)c2cc3sc(=O)oc3c3ccccc23)cc1 | inconclusive [falling, partial curve] | –

Row | Structure (SMILES) | Potency | activity, negative = inhibition
53 | Nc1ncccc1OCc1ccc(Cl)c(Cl)c1 | active: 13.5 µM | –
54 | O=C(CNC(=O)c1ccco1)Nc1ccc(F)c(Cl)c1 | inconclusive [falling, single point] | –
55 | CCOc1ccccc1CNc1ccc(O)cc1 | – | inactive: -12.2%
56 | COc1ccc2sc(-c3ccc(N(C)C)cc3)c(C#CCCO)c2c1 | – | inactive: 4.97%
57 | O=C1CCCC2=C1C1O[C@](c3ccsc3)(Cc3c1ccc1ccccc31)O2 | inconclusive [falling, single point] | –
58 | Cc1cc(NS(=O)(=O)c2ccc(NC(=O)Cc3ccc([N+](=O)[O-])cc3)cc2)nc(C)n1 | active: 8.49 µM | –
59 | NS(=O)(=O)c1cccc(NC(=O)COC(=O)COc2ccc3ccccc3c2)c1 | inconclusive [activator, single point] | –
60 | O=C(NC(=S)NCCC1=CCCCC1)c1ccc(Br)o1 | – | inactive: -0.571%
61 | Cn1nnnc1SCC(=O)N1CCN(c2cccc(Cl)c2)CC1 | inconclusive [falling, single point] | –
62 | Cc1ccc(S(=O)(=O)N2C[C@@H]3[C@H]4CC[C@H](C4)[C@@H]3[C@@H](C)[C@H]2c2ccco2)cc1 | inconclusive [activator, single point] | –
63 | Cc1ccc(OCCCCN2CCC(C)CC2)c(Br)c1 | – | inactive: -7.26%
64 | Cc1cc(C)c2nc3nc(C)c(C)cc3c(N)c2c1 | – | inactive: 0.12%
65 | COc1cc(C(=O)Nc2cccc(S(=O)(=O)N3CCCC3)c2)cc(OC)c1C | – | inactive: 3.84%
66 | O=c1[nH]c2c(oc3ccccc32)c(=O)n1Cc1ccccc1 | inconclusive [falling, single point] | –
67 | Cc1ccc(/C=N/n2cc(-c3ccccc3)[nH]c2=S)s1 | inconclusive [falling, full curve] | –
68 | NC(=O)NC(=O)COC(=O)c1ccccc1OCc1ccc(F)cc1 | inconclusive [falling, single point] | –
69 | CCOC(=O)N1CCC(NC(=O)c2ccc3c(c2)sc2nc(-c4ccccc4)cn23)CC1 | – | inactive: 0.445%
70 | Cc1c(Cl)cnc(NC(=O)COC(=O)c2ccc3ncsc3c2)c1Cl | inconclusive [activator, partial curve] | –
71 | N#Cc1sc(NCc2ccccn2)nc1Cl | inconclusive [falling, partial curve] | –
72 | NC(=O)CC(NSc1ccccc1[N+](=O)[O-])C(=O)O (configuration not stated) | – | inactive: 1.17%
73 | COc1ccc(Cl)cc1C(=O)NNC(=O)C1COc2ccccc2O1 (configuration not stated) | inconclusive [activator, single point] | –
74 | CCN(CC)CCn1c(=S)[nH]c2ccc(Cl)cc2c1=O | inconclusive [falling, single point] | –
75 | Cc1cc2cc(CNS(=O)(=O)c3ccc4ccccc4c3)ccc2n1C | – | inactive: -1.8%
76 | NS(=O)(=O)c1ccc(NC(=O)Nc2ccc3c(c2)OCO3)cc1 | inconclusive [falling, partial curve] | –
77 | Cc1cccc(CN(CC(=O)N/N=C/c2ccco2)S(=O)(=O)c2ccc(Cl)cc2)c1 | inconclusive [falling, single point] | –
